# Measured values as given in the supplement of paper PMC3334620.
# Whole data set: some 33,000 sequences, median “E-score (-0.5 to 0.5)” near -0.016, cut for the highest 2% near 0.31. Some of the results follow.
# Target: Cst6 (UniProt P40535)
# Experiment: PBM E-score (8-mer binding enrichment) (E-score (-0.5 to 0.5)); higher = stronger / more preferred TF binding; most listed sequences are background and not binding sites
# Details: protein concentration: 200 nM; construct: GST-DNA-binding domain
# Procedure, shortened: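 GST-tagged yeast TFs (full-length or DNA-binding domain) were made by PURExpress in vitro transcription/translation and applied at about 100-200 nM to universal all-10-mer Agilent arrays. The arrays were made double-stranded by primer extension, on fresh or once-stripped slides. Bound protein was detected with fluorescent anti-GST, and scans were normalised with masliner. Each ungapped eight-base word, pooled with its reverse complement, received an E-score (modified Wilcoxon-Mann-Whitney statistic) from the Universal PBM Analysis Suite.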
row,Sequence,PBM E-score
1,CCGGTTCC,-0.24
2,CGAGCCCG,-0.126
3,CAACATTA,0.226
4,ATACCAAG,0.0992
5,ACGTCGAC,0.179
6,ACCACTCT,-0.182
7,ACTCCTAC,-0.225
8,AGACTCGG,-0.297
9,CTGCCCAC,-0.227
10,GCATAAGC,0.115
11,GTCAGCTA,-0.0597
12,GTATGGCA,0.0485
13,CAGTATCA,0.148
14,ATGCCACG,0.00475
15,CAGTTCAC,0.0141
16,AGAGGCAC,0.0217
17,CACACAAA,0.165
18,GTGCGCGA,0.136
19,ATATTGTG,0.136
20,ATTAACAG,0.0381
21,TAACTGAA,0.105
22,ACTTTTCG,0.103

row,Sequence,PBM E-score
1,TTAGAAAA,0.193
2,CTGAGCTA,-0.0727
3,GCAGTGCA,-0.1
4,ACCACGGA,-0.311
5,CACTTGTA,0.0874
6,ACAGGCGG,-0.104
7,AGGTACGG,-0.142
8,CAGAGTAG,-0.0569
9,ATGACATG,0.351
10,CGCTGATA,-0.0681
11,ACGGCTGG,-0.135
12,TAAATATA,0.291
13,ACTGGCCT,-0.0929
14,GCTTGGCA,-0.141
15,ACGACAAG,0.0296
16,GACAGTCC,-0.317
17,CTTCGAGA,0.0491
18,GTCAAAAA,0.219
19,AAAGTGAC,0.14
20,CCTAGTCA,-0.147
21,AGAAACGG,0.0981
22,GCTGATTA,0.239

row,Sequence,PBM E-score
1,GACGCGTA,0.224
2,GGTAACAA,0.28
3,CATACTAC,-0.0698
4,AGTACACG,0.0113
5,GAAATCAC,0.27
6,AAAATTCT,0.144
7,CTGTTCCC,-0.214
8,CGGGGATC,-0.369
9,AGTCGCCG,-0.038
10,AAGTTGTC,0.113
11,CAGCTCGA,-0.219
12,GGATGCTA,-0.164
13,ATGTCCCA,-0.259
14,ATTCCAAG,0.117
15,AATCATAA,0.191
16,ATGTGGTC,0.0176
17,TAAGTGCA,0.167
18,CCGCTACC,-0.205
19,AGACACTA,-0.087
20,ACCCAAAT,0.0908
21,GATAGGGA,-0.161
22,GAGAAAGC,0.14

row,Sequence,PBM E-score
1,CCAGTTGA,0.13
2,GATAGATC,-0.0783
3,ACTCCTGA,-0.0557
4,AACCACGT,-0.0278
5,TACCTGCA,-0.0618
6,CACTCGGA,-0.0216
7,ACCCCGCT,-0.159
8,AACCTGGA,-0.037
9,CCCCTCAG,-0.4
10,CATACAAC,0.12
11,CCGGATTC,-0.172
12,CTCCTACA,-0.152
13,AACCACTT,-0.0523
14,AGCTTCCC,-0.383
15,TGCTACAA,0.0326
16,AAGTCTAA,-0.0219
17,CAATTTAG,0.153
18,CGGGTCGC,-0.0753
19,TAGGTAAA,0.116
20,TGTAGAAA,0.151
